Experimental findings from article PMC4336329 (PLoS ONE, 2015) are described below.

The structures appear in SMILES notation. Screen size: about 310,000 compounds; about 2,200 (0.71%) showed an effect of 50% or more. Effects have a minus sign here. This is one part of the list.

human ether-à-go-go-related gene (hERG) potassium channel, sequence (Q12809 whole entry, looked up): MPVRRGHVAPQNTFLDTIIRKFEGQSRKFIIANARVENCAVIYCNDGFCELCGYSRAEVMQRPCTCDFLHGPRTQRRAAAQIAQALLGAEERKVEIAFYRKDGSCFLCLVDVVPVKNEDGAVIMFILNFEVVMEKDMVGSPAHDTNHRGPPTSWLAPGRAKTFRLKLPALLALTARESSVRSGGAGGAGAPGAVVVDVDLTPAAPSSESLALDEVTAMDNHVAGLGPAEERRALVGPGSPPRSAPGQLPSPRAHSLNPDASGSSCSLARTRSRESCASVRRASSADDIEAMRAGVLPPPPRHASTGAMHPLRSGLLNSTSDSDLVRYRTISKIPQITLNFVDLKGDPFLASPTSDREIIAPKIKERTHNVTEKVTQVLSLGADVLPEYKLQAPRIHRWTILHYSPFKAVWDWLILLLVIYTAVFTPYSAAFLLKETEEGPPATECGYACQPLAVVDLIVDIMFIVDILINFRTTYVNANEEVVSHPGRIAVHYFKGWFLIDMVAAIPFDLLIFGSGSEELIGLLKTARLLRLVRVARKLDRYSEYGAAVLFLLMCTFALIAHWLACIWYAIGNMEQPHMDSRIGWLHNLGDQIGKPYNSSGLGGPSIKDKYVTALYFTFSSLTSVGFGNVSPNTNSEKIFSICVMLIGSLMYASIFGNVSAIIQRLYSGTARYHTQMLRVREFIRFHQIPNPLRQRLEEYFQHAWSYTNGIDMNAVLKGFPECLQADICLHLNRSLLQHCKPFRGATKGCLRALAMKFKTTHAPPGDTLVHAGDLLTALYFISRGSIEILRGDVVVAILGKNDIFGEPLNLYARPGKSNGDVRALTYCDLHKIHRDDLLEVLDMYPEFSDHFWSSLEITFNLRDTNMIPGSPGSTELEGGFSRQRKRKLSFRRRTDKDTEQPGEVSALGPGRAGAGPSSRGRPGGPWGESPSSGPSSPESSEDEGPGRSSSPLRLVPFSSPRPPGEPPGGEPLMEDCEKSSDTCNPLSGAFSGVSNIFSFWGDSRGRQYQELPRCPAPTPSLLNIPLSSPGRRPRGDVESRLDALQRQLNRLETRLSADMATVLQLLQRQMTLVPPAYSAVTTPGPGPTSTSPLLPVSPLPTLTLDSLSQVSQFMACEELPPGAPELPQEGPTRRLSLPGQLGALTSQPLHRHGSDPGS

The assay concerns the target human ether-à-go-go-related gene (hERG) potassium channel (human, UniProt Q12809). Kind of assay: primary screen, population patch clamp on CHO cells stably expressing hERG.
`Cc1ccc(S(=O)(=O)NNC(=S)Nc2ccccc2)cc1`: the “hERG current change (%, negative = inhibition) at 1uM” value is on record as -0.0574%.
For `CN(C)c1ccc(C(CNC(=O)c2ccco2)N2CCCC2)cc1` (stereo not drawn) the value was 13.2%; for `CCCCn1c(=O)[nH]c(=O)c2c1nc(-c1ccc(OCCC)c(OCC)c1)n2CCOC`, 0.889%; for `CCOc1ccccc1C(=O)N(C)Cc1cc2ccccc2[nH]c1=O`, 13.9%.
For `COc1ccc(-c2nc(C#N)c(NCc3ccccc3Cl)o2)cc1OC` the value was 5.18%; for `CCC(c1nnnn1C1CCCC1)N1CCC(C(N)=O)CC1` (stereo not drawn), 29.5%; for `O=c1nc(/C=C/c2cccn2-c2ccc([N+](=O)[O-])cc2)cc(C(F)(F)F)[nH]1`, 11.5%.
For `O=C(O)COCc1nc2ccccc2s1` the value was 8.45%; for `CCOc1ccc(NC(=O)CN(c2ccc(OC)cc2)S(C)(=O)=O)cc1`, 8.87%.
For the compound `COc1ccc(NC(=O)C2=CCN(S(=O)(=O)c3ccccc3)CC2)cc1OC`, the “hERG current change (%, negative = inhibition) at 1uM” value was determined as 5.44%.
Turning to `C=COCCNC(=S)N1CCOCCOCCN(C(=S)NCCOC=C)CCOCCOCC1`, the “hERG current change (%, negative = inhibition) at 1uM” value amounted to 11.4%.
For `N#Cc1c(-c2ccc(Cl)cc2Cl)nc2n(c1=O)CCS2` the value was 7.79%; for `COc1cc(C2=NOC(C(=O)NCc3cccnc3)C2)cc(OC)c1OC` (stereo not drawn), 8.35%.
For `NC(C(=O)O)C1CC(Cl)=NO1` (stereo not drawn) the value was 14.9%.
With `CCN(CC)C(=O)Cn1cc(C(=O)C(=O)NCCc2ccc(S(N)(=O)=O)cc2)c2ccccc21`, the “hERG current change (%, negative = inhibition) at 1uM” value is reported as -5.74%.
The result for `COc1ccc(C(CNC(=O)COc2ccccc2C#N)N2CCOCC2)cc1` (stereo not drawn) reads 10.5%; that for `Cc1ccc(NS(=O)(=O)c2ccc3c(c2)c(=O)n(C)c(=O)n3C)cc1F`, 10.1%.
For `O=C1[C@@H]2CSCN2C(=O)CN1Cc1ccc(F)cc1` the value was 7.25%; for `CCOC(=O)c1c(C)[nH]c(C)c1S(=O)(=O)N(C)CC(=O)Nc1ccccc1`, 16.5%.
The result for `COc1ccc(CCNC(=O)CCn2c(=O)[nH]c3cc(OC)c(OC)cc3c2=O)cc1OC` reads 2.09%.
Regarding `CCOC(=O)C1(CCOc2ccccc2)CCN(Cc2cc(OC)ccc2OC)CC1`, the “hERG current change (%, negative = inhibition) at 1uM” value is reported as -60.1%.
The result for `C=CCN1C(=O)C(O)(CC(=O)c2ccco2)c2cc(Br)ccc21` (stereo not drawn) reads 13.5%; that for `N#CCC(=O)N/N=C/c1c(-c2ccccc2)n(-c2ccccc2)c2ccccc12`, 12.6%.
The result for `O=C1CC(N2CCN(c3ccccn3)CC2)C(=O)N1c1ccc(Cl)cc1` (stereo not drawn) reads -4.88%.
Take `COCCCNC(=O)Cn1cc2c(n1)CCCCC2`: the “hERG current change (%, negative = inhibition) at 1uM” value turned out to be 12.2%.
In the case of `Cc1ccc(Cl)cc1NC(=O)COC(=O)Cn1cnc2c1c(=O)n(C)c(=O)n2C`, the “hERG current change (%, negative = inhibition) at 1uM” value is 9.94%.
In the case of `Cc1cc(N/N=C/c2ccc(F)cc2)nc(-n2nc(C)cc2C)n1`, the “hERG current change (%, negative = inhibition) at 1uM” value was 14.2%.
`Cn1cc(Br)c(C(=O)Nc2sc3c(c2C(N)=O)CCCC3)n1`: the “hERG current change (%, negative = inhibition) at 1uM” value is on record as 16.7%.
On to `CC(C)O/N=C1\C(=O)N(c2ccccc2)c2ccccc21`, for which the “hERG current change (%, negative = inhibition) at 1uM” value is listed as 0.997%.
For `Cn1nnnc1SCC(=O)Nc1cccc(S(=O)(=O)N2CCCC2)c1` the value was 13.1%; for `COC(=O)C1CCN(C(=O)Cn2nnc(-c3ccccc3)n2)CC1`, 14.2%.
The result for `O=C1CC(c2ccccc2)n2nc(NC(=O)c3ccccn3)nc2N1` (stereo not drawn) reads 4.17%; that for `Cc1cc(C)n(-c2ccc(C(=O)Nc3ccc(N4CCOCC4)cc3)cc2)n1`, 3.93%; that for `O=C(O)CCCn1c(=O)[nH]c2ccccc2c1=O`, 6.11%.
For `COc1cc(CNc2ccc3[nH]c(=O)[nH]c3c2)ccc1OCc1ccc(F)cc1` the value was 15.4%; for `CCC(C(=O)N/N=C(\C)c1cccnc1)c1ccccc1` (stereo not drawn), 8.84%.
`COc1ccc2nc(SCc3nc(N)nc(Nc4ccccc4)n3)[nH]c2c1`: the “hERG current change (%, negative = inhibition) at 1uM” value was -2.91%.
For `O=C1C=CC(=O)N1CCCCCCN1C(=O)C=CC1=O`, the “hERG current change (%, negative = inhibition) at 1uM” value is on record as 20.7%.
The result for `Nc1cc(Cl)cc(C(=O)O)c1Cl` reads 12.5%.
As to `COc1cc2c(cc1OC)C(c1ccncc1)CC(=O)N2` (stereo not drawn), the “hERG current change (%, negative = inhibition) at 1uM” value came out at 8.43%.
The result for `c1ccc(-c2csc(-c3ccc(-c4csnn4)cc3)n2)cc1` reads 17.1%; that for `O=C(CN1C(=O)NC2NC(=O)NC21)N/N=C/c1ccc(F)cc1` (stereo not drawn), -1.01%; that for `Cc1nc2cc(NC(=O)Nc3nccs3)ccc2n1C`, 3.28%.
For `COc1cc2c(cc1OC)C1C(C(=O)Nc3ccccc3N3CCN(C)CC3)c3ccccc3C(=O)N1CC2` (stereo not drawn) the value was -0.312%; for `O=C(CSc1nnnn1-c1cccnc1)NCc1cccs1`, 15.2%.
